Assay results: PubChem BioAssay AID360 (National Center for Advancing Translational Sciences (NCATS), 2006)
Hit rate of the full screen: of about 48,000 compounds, about 550 (1.1%) were called active. About 4% were inconclusive and are not listed. Cut-off read from the data, not from the text of the source: active = potency below about 15 µM; inconclusive = mostly about 16 µM to 33 µM; inactive = weaker than that. The list shows a part of the results.

These compounds were tested against Lysosomal acid glucosylceramidase (Homo sapiens) (UniProt P04062) (assay: Glucocerebrosidase). Conditions: purified enzyme, resorufin glucoside fluorescence (screen aimed at inhibitors), 20 min.
UniProt P04062, sequence (P04062 whole entry, looked up): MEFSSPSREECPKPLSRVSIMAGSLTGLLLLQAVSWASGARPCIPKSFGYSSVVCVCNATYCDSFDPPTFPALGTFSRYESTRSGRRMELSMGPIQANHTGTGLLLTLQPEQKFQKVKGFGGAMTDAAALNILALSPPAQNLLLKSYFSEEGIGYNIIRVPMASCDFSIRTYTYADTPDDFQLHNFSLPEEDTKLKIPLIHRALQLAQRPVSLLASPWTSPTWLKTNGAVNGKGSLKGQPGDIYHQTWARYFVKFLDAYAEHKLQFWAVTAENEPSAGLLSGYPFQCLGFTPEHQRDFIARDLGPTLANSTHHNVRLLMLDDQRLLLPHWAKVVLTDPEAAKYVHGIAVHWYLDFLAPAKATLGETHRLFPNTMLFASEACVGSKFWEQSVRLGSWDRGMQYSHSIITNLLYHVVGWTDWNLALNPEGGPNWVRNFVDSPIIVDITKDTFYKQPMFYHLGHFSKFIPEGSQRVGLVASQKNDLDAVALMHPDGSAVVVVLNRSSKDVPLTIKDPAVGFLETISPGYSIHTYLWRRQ
How it was run: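 Wild-type enzyme at 0.2 nM final in 50mM citric acid/KH2PO4, 10mM sodium taurocholate, 0.01% tween-20, pH 5.9, with resorufin beta-D-glucopyranoside at 30 uM final. Compounds titrated, 20 min at RT, red fluorescence read; AC50 from titration.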
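Note: the screen sought inhibitors.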
Potency is the fitted concentration of half-maximal effect.

SMILES	Potency
O=C(OCCN1C(=O)CCC1=O)c1ccc(S(=O)(=O)N2CCCCC2)cc1	inactive: > 76.9 µM
CCOc1ccc2[nH]c(=O)c(CN(C(=O)N3CCOCC3)C3CC3)cc2c1	inactive: > 76.9 µM
Cn1cnc2c(N3CCCCC3)nccc21	inactive: > 76.9 µM
Cc1ccc(C2CC(C(F)(F)F)n3nc(C(=O)NCc4ccco4)cc3N2)cc1 (stereo not given)	inactive: > 76.9 µM
CCOc1ccc(NC(=O)c2cccc3c2C(=O)N(Cc2cccnc2)C3)cc1	inactive: > 76.9 µM
COCCCN1C(=O)C(=O)/C(=C(/O)c2ccc(C)cc2)C1c1ccccc1 (stereo not given)	inactive: > 76.9 µM
CCOC(=O)Cc1csc(Nc2c(C)n(C)n(-c3ccccc3)c2=O)n1	inactive: > 76.9 µM
Cc1cc(C)cc(-n2nnc(C(=O)NCc3ccccc3)c2N)c1	inactive: > 76.9 µM
CCOc1ccc(Nc2nc(C)cc(C)c2C#N)cc1	inactive: > 76.9 µM
Cc1ccc(NC2=NC(c3ccccc3)n3c(nc(C)cc3=O)N2)cc1 (stereo not given)	inactive: > 76.9 µM
O=C(CCN1C(=O)CSC1=O)Nc1ccccc1	inactive: > 76.9 µM
C=CCc1c(C)nc(SC(C)C)[nH]c1=O	inactive: > 76.9 µM
Cc1nn(CC(=O)Nc2ccc(C(=O)N3CCCC3)cc2)c(=O)c2ccccc12	inactive: > 76.9 µM
O=C(NC(NC1CCS(=O)(=O)C1)C(=O)c1ccccc1)c1ccc(Cl)cc1 (stereo not given)	inactive: > 76.9 µM
Cc1cc(C)n(CNc2nc(C(F)(F)F)cs2)n1	inactive: > 76.9 µM
COC(=O)CSc1nnc(CNS(=O)(=O)c2ccc(C)cc2)n1C	inactive: > 76.9 µM
COC(=O)c1cc(NC2c3ncccc3C(=O)N2Cc2ccccc2)cc(C(=O)OC)c1 (stereo not given)	inactive: > 76.9 µM
COc1ccc(-c2nnc3ccc(SCC(=O)NCc4ccco4)nn23)cc1OC	inactive: > 76.9 µM
CC(=O)c1cc(C)ccc1OC(=O)c1cccc2nc(C)oc12	inactive: > 76.9 µM
CSc1oc(-c2ccc(F)cc2)nc1S(=O)(=O)c1ccccc1	inactive: > 76.9 µM
CC(=O)c1cccc(NC(=O)N2CCCC2C(=O)Nc2cc(C)ccc2C)c1 (stereo not given)	inactive: > 76.9 µM
COc1ccc(Cl)cc1NC(=O)c1c(-c2ccccc2)noc1C	inactive: > 76.9 µM
CCN1C(=O)/C(=C\N2CCN(c3ccccc3)CC2)SC1=S	inactive

SMILES	Potency
CCOC(=O)c1[nH]c2c(c1C)C(=O)CC(c1ccc(OC)c(OC)c1)C2 (stereo not given)	inactive: > 76.9 µM
CCN(CC)c1nc(Nc2ccccc2)nc(Oc2ccc(=O)n(C)n2)n1	inactive: > 76.9 µM
Cc1cccc(-c2c3c(=O)n(C)c(=O)n(C)c3cn2C(C)C)c1	inactive: > 76.9 µM
Cn1c(=O)c(=O)n(C)c2cc(S(=O)(=O)N3CCN(c4cccc(C(F)(F)F)c4)CC3)ccc21	inactive: > 76.9 µM
Cc1ccc(Oc2cc(C)nc(-c3ccccc3O)n2)cc1	inactive: > 76.9 µM
CCN(C(=O)c1ccnc(C(C)(C)C)c1)c1ccccc1	inactive: > 76.9 µM
CCCCCCn1c(CN2CCCC(C)C2)nc2c1c(=O)n(C)c(=O)n2C (stereo not given)	inactive: > 76.9 µM
CC(=O)N1c2c(cc(Br)cc2S(=O)(=O)N2CCN(c3ccccn3)CC2)CC1C (stereo not given)	inactive: > 76.9 µM
NC(=O)COC(=O)c1ccc(S(=O)(=O)N2CCCCCC2)cc1	inactive: > 76.9 µM
Cc1cnc(NC(=O)C2CCCO2)s1 (stereo not given)	inactive: > 76.9 µM
CCCCN(C)CCCNC(=O)c1ccc(N2CCCC2=O)cc1	inactive: > 76.9 µM
CCN(Cc1ccccc1)C(c1ccccn1)c1nnnn1C(C)(C)CC (stereo not given)	inactive: > 76.9 µM
CCOc1ccc(C(=O)N(C)C2CCS(=O)(=O)C2)cc1 (stereo not given)	inactive: > 76.9 µM
CC(C)N(Cc1ccccc1)C(=O)COC(=O)c1ccc2c(c1)OCCO2	inactive: > 76.9 µM
O=C(CSc1nnc(-c2ccco2)n1Cc1ccco1)N1CCOCC1	inactive: > 76.9 µM
CC(C)(C)n1nc2c(c1NC(=O)c1ccc(Br)o1)CS(=O)C2 (stereo not given)	inactive: > 76.9 µM
Cc1ccccc1OCC1Cn2c(nc3c2c(=O)[nH]c(=O)n3C)O1 (stereo not given)	inactive: > 76.9 µM
COc1ccc(C2=NOC(C(=O)NCc3ccc(F)cc3)C2)cc1OC (stereo not given)	inactive: > 76.9 µM
N=c1n(Cc2ccccc2)c2ccccc2n1CC(O)c1ccccc1 (stereo not given)	inactive: > 76.9 µM
COc1ccc(N2CC(C(=O)NCc3cccnc3)CC2=O)cc1 (stereo not given)	inactive: > 76.9 µM
O=C(O)CCC(=O)N1CCN(c2ccccn2)CC1	inactive: > 76.9 µM
Cc1cc(=O)n2nc(N3CCCC(C(=O)N4CCN(C)CC4)C3)sc2n1 (stereo not given)	inactive: > 76.9 µM
CCOC(=O)c1cnc(-n2nc(C)cc2C)nc1NCc1ccccc1	inactive: > 76.9 µM

SMILES	Potency
CCCOc1ccc(N2C(=O)CC(NCCCN3CCC(C(N)=O)CC3)C2=O)cc1 (stereo not given)	inactive: > 76.9 µM
O=C(CN(C(=O)CNC(=O)c1ccco1)c1ccc2c(c1)OCO2)NC1CCCCC1	inactive: > 76.9 µM
COc1ccc(OC)c(NC(=O)c2ccc(S(=O)(=O)N3CCN(C)CC3)cc2)c1	inactive: > 76.9 µM
CC1CCc2c(C(=O)NCC3CCCO3)csc2C1 (stereo not given)	inactive: > 76.9 µM
COc1ccccc1Nc1nnc(SCC(=O)N2CCCC2=O)s1	inactive: > 76.9 µM
N#CC(C(=O)O)=C1CCCC1	inactive: > 76.9 µM
Cc1ccc(-c2nnn(CC(=O)N(Cc3ccco3)C(C(=O)NC(C)(C)C)c3cccs3)n2)o1 (stereo not given)	inactive: > 76.9 µM
O=C(CN1CCN(c2ccccn2)CC1)NCc1cccs1	inactive: > 76.9 µM
O=C1c2ccccc2S(=O)(=O)N1CC1CC(c2ccccc2)=NO1 (stereo not given)	inactive: > 76.9 µM
CCCCS(=O)(=O)N1CN(S(=O)(=O)CCCC)C2NC(=O)NC21 (stereo not given)	inactive: > 76.9 µM
Cc1oc2c(CN3CCOCC3)c(O)ccc2c(=O)c1-c1ccc(Br)cc1	inactive: > 76.9 µM
O=C1c2ccccc2C(=O)N1C/C=C/c1ccccc1	inactive: > 76.9 µM
COCCCNC(=O)C1CCN(S(=O)(=O)N(CC(C)C)CC(C)C)CC1	inactive: > 76.9 µM
Cc1c(N=C/C=C/c2ccccc2)cnn1C	inactive: > 76.9 µM
CCOc1cc(C2/C(=C(\O)c3cc(C)ccc3C)C(=O)C(=O)N2CCN(C)C)ccc1O (stereo not given)	inactive: > 76.9 µM
Nc1nc2n(n1)C(c1ccco1)CC(c1ccc(Cl)cc1Cl)N2 (stereo not given)	inactive: > 76.9 µM
Cc1cccc(C)c1OCC(O)CN (stereo not given)	inactive: > 76.9 µM
CCOCCCN(C(=O)Nc1ccc(CC)cc1)C1CCN(C(C)=O)CC1	inactive: > 76.9 µM
CCc1ccc2oc(=O)cc(CN3CCOCC3)c2c1	inactive: > 76.9 µM
CCn1c(SCC(=O)NC(C)(C)C)nc(O)cc1=O	inactive: > 76.9 µM
CC1CCCCC1NC(=O)CSc1nnnn1-c1ccccc1 (stereo not given)	inactive: > 76.9 µM
CN1C(=O)NC(NC(=O)c2cccs2)(C(F)(F)F)C1=O (stereo not given)	inactive: > 76.9 µM
COc1cc(OC)c(C2SCCN2S(=O)(=O)c2ccc(F)cc2)cc1OC (stereo not given)	inactive: > 76.9 µM

SMILES	Potency
Cn1c(C(=O)OCC(=O)NCc2ccco2)cc2sccc21	inactive: > 76.9 µM
Cc1ccc(S(=O)(=O)NCc2ccco2)c(C)c1C	inactive: > 76.9 µM
S=c1[nH]nc(-c2cccnc2)n1Cc1ccccc1	inactive: > 76.9 µM
Cc1oc(C)c2c(=O)ccc3c(c12)OC(N)=C(C#N)C3c1ccccc1 (stereo not given)	inactive: > 76.9 µM
O=C(O)C1C2C=CC(O2)C1C(=O)Nc1ccccc1C(F)(F)F (stereo not given)	inactive: > 76.9 µM
O=C(C1CCC1)N1CCc2cc(S(=O)(=O)N3CCc4ccccc4C3)ccc21	inactive: > 76.9 µM
Cc1noc(C)c1S(=O)(=O)Nc1ccc(C(=O)NCCc2ccccc2)cc1	active: 1.62 µM
CC1CN(c2oc(COc3ccc(Cl)cc3Cl)nc2C#N)CC(C)O1 (stereo not given)	inactive: > 76.9 µM
CC(C)OC(=O)CSc1n[nH]c(-c2cccnc2)n1	inactive: > 76.9 µM
CCCc1nc2c(sc3nc4c(cc32)COC(C)(C)C4)c(=O)n1Cc1ccco1	inactive: > 76.9 µM
COc1ccc(/C=C/C(O)=C2/C(=O)N(C)C3(C)CC2c2ccccc2O3)cc1 (stereo not given)	inactive: > 76.9 µM
N#CC1=C(N)Oc2n[nH]c(-c3ccccc3)c2C1c1cccnc1 (stereo not given)	inactive: > 76.9 µM
O=C(Nc1ccc2ccccc2c1)N1CCN(c2ncccc2C(F)(F)F)CC1	inactive: > 76.9 µM
O=C(c1ccco1)N1CCN(c2cc(C(F)(F)F)nc3ncnn23)CC1	inactive: > 76.9 µM
Cc1ccc(-n2c(=O)[nH]cc(C(=O)N3CCc4ccccc43)c2=O)cc1	inactive: > 76.9 µM
CC1CCC2(CC1)NC(=O)N(Cc1nc(-c3ccccc3)no1)C2=O (stereo not given)	inactive: > 76.9 µM
CCc1ccc(NC(=O)N(C2CCC(C)CC2)C2CCN(C(C)=O)CC2)cc1 (stereo not given)	inactive: > 76.9 µM
CCOC(=O)c1cc(NC(=O)N2CCCCC2)c(C)nc1C	inactive: > 76.9 µM
COCCCNC(=O)c1ccc2c(=O)n(C3CCCC3)c(=S)[nH]c2c1	inactive: > 76.9 µM
CCCn1c(=O)c2c(nc(Br)n2CCC)n(C)c1=O	inactive: > 76.9 µM
Cc1cccc(C)c1NC(=O)CSc1nnc(-c2ccoc2C)n1CCc1ccccc1	inactive: > 76.9 µM
